Data: the supplement of paper PMC9151546
Single values are uncertain, as repeats are few or missing.

How the values were obtained:
CHO-K1 [1] = test: relative survival (nuclei to bead ratio vs DMSO control) (% of vehicle control); higher = more surviving cells
Method: (§1)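 Flow-cytometric in vitro micronucleus assay (Litron MicroFlow) in CHO-K1 cells in 96-well plates, 19 concentrations (4.5-200 µM, n=1 per concentration). Without S9, cells were exposed for 24 h and sampled at 48 h. With Aroclor 1254-induced rat liver S9, cells were exposed for 3-4 h and sampled at 27-28 h. Read-outs are %MN and %hypodiploid nuclei relative to nucleated events, and relative survival as the nuclei-to-bead ratio versus the 1% DMSO vehicle control (x100).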

CHO-K1 [2] = test: hypodiploid nuclei frequency (% of nucleated events); higher = more hypodiploid events (aneugenic)
Method: as §1

CHO-K1 [3] = test: micronucleus frequency (% of nucleated events); higher = more micronuclei (genotoxic)
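Throughout, for hypodiploid nuclei frequency (% of nucleated events): hypodiploid nuclei gated on a flow cytometer with 488 nm excitation after SYTOX Green staining, cultures at 37 °C, positive controls vinblastine without S9 and cyclophosphamide with S9.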
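Throughout, for micronucleus frequency (% of nucleated events): cells lysed with nuclei stained by SYTOX Green, then micronucleus-gated events counted against nucleated events by flow cytometry with 488 nm excitation.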
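Throughout, for relative survival (nuclei to bead ratio vs DMSO control): Lysed-cell nuclei stained with SYTOX Green and counted against counting beads by flow cytometry at 488 nm excitation, with vinblastine (no S9) and cyclophosphamide (plus S9) as positive controls.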

O=[N+]([O-])c1ccc(O)cc1 [4-Nitrophenol]
Settings	hypodiploid nuclei frequency, CHO-K1 [2] [%]	micronucleus frequency, CHO-K1 [3] [%]	relative survival, CHO-K1 [1]
concentration: 4.5 (µM), S9 metabolic activation: with S9, exposure time: 3-4 hours	0.28	0.72	120
concentration: 4.5 (µM), S9 metabolic activation: without S9, exposure time: 24 hours	3.52	1.34	119
concentration: 5.63 (µM), S9 metabolic activation: with S9, exposure time: 3-4 hours	0.38	1.74	124
concentration: 5.63 (µM), S9 metabolic activation: without S9, exposure time: 24 hours	2.06	1.66	105
concentration: 7.04 (µM), S9 metabolic activation: with S9, exposure time: 3-4 hours	0.22	1.36	105
concentration: 7.04 (µM), S9 metabolic activation: without S9, exposure time: 24 hours	1.42	1.3	93.5
concentration: 8.8 (µM), S9 metabolic activation: with S9, exposure time: 3-4 hours	0.2	0.9	93.8
concentration: 8.8 (µM), S9 metabolic activation: without S9, exposure time: 24 hours	1.36	2.18	96.9
concentration: 11 (µM), S9 metabolic activation: with S9, exposure time: 3-4 hours	0.18	0.72	102
concentration: 11 (µM), S9 metabolic activation: without S9, exposure time: 24 hours	0.96	1.84	92.9
concentration: 13.7 (µM), S9 metabolic activation: with S9, exposure time: 3-4 hours	0.16	0.88	109
concentration: 13.7 (µM), S9 metabolic activation: without S9, exposure time: 24 hours	1.24	2.14	119
concentration: 17.2 (µM), S9 metabolic activation: with S9, exposure time: 3-4 hours	0.14	1.02	103
concentration: 17.2 (µM), S9 metabolic activation: without S9, exposure time: 24 hours	1.02	1.86	130
concentration: 21.5 (µM), S9 metabolic activation: with S9, exposure time: 3-4 hours	0.18	1.08	78.6
concentration: 21.5 (µM), S9 metabolic activation: without S9, exposure time: 24 hours	0.8	1.54	104
concentration: 26.8 (µM), S9 metabolic activation: with S9, exposure time: 3-4 hours	0.32	1.12	149
concentration: 26.8 (µM), S9 metabolic activation: without S9, exposure time: 24 hours	1.06	0.96	65.4
concentration: 33.6 (µM), S9 metabolic activation: with S9, exposure time: 3-4 hours	0.2	0.74	98.1
concentration: 33.6 (µM), S9 metabolic activation: without S9, exposure time: 24 hours	0.68	0.78	62.1
concentration: 41.9 (µM), S9 metabolic activation: with S9, exposure time: 3-4 hours	0.26	1.02	127
concentration: 41.9 (µM), S9 metabolic activation: without S9, exposure time: 24 hours	1.1	1.24	72.7
concentration: 52.4 (µM), S9 metabolic activation: with S9, exposure time: 3-4 hours	0.32	0.86	115
concentration: 52.4 (µM), S9 metabolic activation: without S9, exposure time: 24 hours	1.02	0.9	79.7
concentration: 65.5 (µM), S9 metabolic activation: with S9, exposure time: 3-4 hours	0.44	1.32	84.8
concentration: 65.5 (µM), S9 metabolic activation: without S9, exposure time: 24 hours	1.16	1.2	61.6
concentration: 81.9 (µM), S9 metabolic activation: with S9, exposure time: 3-4 hours	0.22	0.8	97.2
concentration: 81.9 (µM), S9 metabolic activation: without S9, exposure time: 24 hours	1.48	1.4	74.4
concentration: 102 (µM), S9 metabolic activation: with S9, exposure time: 3-4 hours	0.32	1.06	96
concentration: 102 (µM), S9 metabolic activation: without S9, exposure time: 24 hours	1.24	1.7	67.1
concentration: 128 (µM), S9 metabolic activation: with S9, exposure time: 3-4 hours	0.32	0.78	104
concentration: 128 (µM), S9 metabolic activation: without S9, exposure time: 24 hours	1.5	1.46	65.4
concentration: 160 (µM), S9 metabolic activation: with S9, exposure time: 3-4 hours	0.32	0.78	112
concentration: 160 (µM), S9 metabolic activation: without S9, exposure time: 24 hours	1.36	1.9	59.5
concentration: 200 (µM), S9 metabolic activation: with S9, exposure time: 3-4 hours	0.12	0.82	96.3
concentration: 200 (µM), S9 metabolic activation: without S9, exposure time: 24 hours	1.36	1.98	68.3
